From the supplement of paper PMC8512760
This is one part of the list. Many values rest on one well or one pass, so single values are uncertain.

test system: SUM-149; experiment: cell viability relative to vehicle (% of vehicle); basal-like triple-negative breast cancer lines; higher = less cytotoxic; settings: 10 µM; 72 h
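Note: stably firefly luciferase-GFP labeled cells in 96-well plates, viability read as luciferase photon flux after d-luciferin addition, treated wells normalized to vehicle wells, single-dose high-throughput screen.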

Row | SMILES | cell viability
1 | Clc1ccc2c(c1)CCc1cccnc1C2=C1CCNCC1 [Desloratadine] | 91.7
2 | CC(CN1CC(=O)NC(=O)C1)N1CC(=O)NC(=O)C1.Cl (stereo not given) [Dexrazoxane HCl (ICRF-187, ADR-529)] | 94
3 | CC12CCC3c4ccc(O)cc4CCC3C1CCC2=O (stereo not given) [Estrone] | 111
4 | S=c1nc[nH]c2nc[nH]c12 [Mercaptopurine (6-MP)] | 156
5 | Cl.Cl.OCCOCCN1CCN(C(c2ccccc2)c2ccc(Cl)cc2)CC1 (stereo not given) [Hydroxyzine 2HCl] | 96.2
6 | CC(C)C(N)C(=O)OCC(CO)OCn1cnc2c(=O)nc(N)[nH]c21.Cl (stereo not given) [Valganciclovir HCl] | 115
7 | Cl.OC(CNCC(O)C1CCc2cc(F)ccc2O1)C1CCc2cc(F)ccc2O1 (stereo not given) [Nebivolol] | 55
8 | COc1ccc2cccc(CCNC(C)=O)c2c1 [Agomelatine] | 98.5
9 | Cc1ccc(-c2cc(C(F)(F)F)nn2-c2ccc(S(N)(=O)=O)cc2)cc1 [Celecoxib] | 97.4
10 | O=C([O-])Cc1ccccc1Nc1c(Cl)cccc1Cl.[K+] [Diclofenac Potassium] | 120
11 | Cc1noc(NS(=O)(=O)c2ccc(N)cc2)c1C [Sulfisoxazole] | 106
12 | CN(C)C(=N)N=C(N)N.Cl [Metformin HCl] | 110
13 | CC1(COc2ccc3c(c2)ncn3-c2ccc3cccc(N4CCC(N)CC4)c3n2)COC1 | 48.2
14 | FC(F)(F)c1ccc(C=Cc2nc(COc3ccc(CCCCn4ccnn4)cc3)co2)cc1 [Mubritinib (TAK 165)] | 120
15 | CCCNC1CCc2nc(N)sc2C1.Cl.Cl.O (stereo not given) [Pramipexole 2HCl Monohydrate] | 111
16 | CO[C@H]1/C=C/O[C@@]2(C)Oc3c(C)c(O)c4c(O)c(c5c(nc6cc(C)ccn65)c4c3C2=O)NC(=O)/C(C)=C\C=C\[C@H](C)[C@H](O)[C@@H](C)[C@H](O)[C@@H](C)[C@H](OC(C)=O)[C@@H]1C [Rifaximin (Xifaxan)] | 107
17 | OCCOCCN1CCN(C2=Nc3ccccc3Sc3ccccc32)CC1 [Quetiapine] | 122
18 | CC(=O)Nc1ccc(O)cc1 [Acetaminophen] | 105
19 | COc1ccc(C2CNC(=O)C2)cc1OC1CCCC1 (stereo not given) [Rolipram] | 124
20 | CN(C)CCC=C1c2ccccc2COc2ccc(CC(=O)O)cc21.Cl [Olopatadine HCl] | 123

Row | SMILES | cell viability
21 | COc1c(N2CCNC(C)C2)c(F)cc2c(=O)c(C(=O)O)cn(C3CC3)c12 (stereo not given) [Gatifloxacin] | 94.8
22 | Nc1ncn(C2CC(O)C(CO)O2)c(=O)n1 (stereo not given) | 94.7
23 | CCCCOc1cc(C(=O)OCCN(CC)CC)ccc1N.Cl [Oxybuprocaine HCl] | 112
24 | Cc1cc(C)nc(NS(=O)(=O)c2ccc(N)cc2)n1 [Sulfamethazine] | 105
25 | CCN(CC)CC#CCOC(=O)C(O)(c1ccccc1)C1CCCCC1 (stereo not given) [Oxybutynin] | 97.7
26 | CC1(C)CCC(c2ccc(Cl)cc2)=C(CN2CCN(c3ccc(C(=O)NS(=O)(=O)c4ccc(NC(CCN5CCOCC5)CSc5ccccc5)c(S(=O)(=O)C(F)(F)F)c4)cc3)CC2)C1 (stereo not given) [ABT-263 (Navitoclax)] | 47.2
27 | CC(C)(C)NCC(O)COc1nsnc1N1CCOCC1.O=C(O)C=CC(=O)O (stereo not given) [Timolol Maleate] | 90.4
28 | CN1CCCC1c1cccnc1.O=C(O)C(O)C(O)C(=O)O.O=C(O)C(O)C(O)C(=O)O (stereo not given) [Nicotine Difartrate] | 92.5
29 | CO/N=C(\C(=O)N[C@@H]1C(=O)N2C(C(=O)[O-])=C(COC(C)=O)CS[C@H]12)c1csc(N)n1.[Na+] [Cefotaxime (sodium salt)] | 78.4
30 | Cc1nc2c([nH]1)CCN(C(=O)c1ccc(NC(=O)c3ccccc3-c3ccccc3)cc1)c1ccccc1-2.Cl [Conivaptan HCl] | 92.5
31 | Cc1cncc(CN2CCC(=C3c4ccc(Cl)cc4CCc4cccnc43)CC2)c1.O=C(O)C=CC(=O)O [Rupatadine Fumarate] | 113
32 | Cn1c([N+](=O)[O-])cnc1COC(N)=O [Ronidazole] | 111
33 | COc1cc(NS(=O)(=O)c2ccc(N)cc2)nc(OC)n1 [Sulfadimethoxine] | 121
34 | O=c1nc[nH]c2c1ncn2C1CCC(CO)O1 (stereo not given) [Didanosine] | 114
35 | C[C@@H]1C\C=C/C=C\C=C/C=C\[C@H](O[C@@H]2O[C@H](C)[C@@H](O)[C@H](N)[C@@H]2O)C[C@@H]2O[C@](O)(C[C@@H](O)C[C@H]3O[C@@H]3/C=C\C(=O)O1)C[C@H](O)[C@H]2C(=O)O [Natamycin] | 136
36 | Cc1cc(=O)n(-c2ccccc2)n1C [Antipyrine] | 110
37 | CC1c2cccc(O)c2C(O)=C2C(=O)C3(O)C(O)=C(C(N)=O)C(=O)C(N(C)C)C3C(O)C21.Cl (stereo not given) [Doxycycline HCl] | 88.3
38 | Cc1cnc(C(=O)O)c[n+]1[O-] [Acipimox] | 87
39 | OC(Cn1cncn1)(Cn1cncn1)c1ccc(F)cc1F [Fluconazole hydrate] | 105
40 | C=C[C@@H]1C[N@@]2CC[C@H]1C[C@@H]2[C@H](O)c1ccnc2ccc(OC)cc12 [Quinidine] | 115
